This is one part of the list.

The labels stand for the following.
B1: chr22:38483724:38483825:-|3pUTR|ENSG00000100201|msi1|FALSE|bound_elsewhere (ssRNA)
RNA: GGGAGUUCUACAGUCCGACGAUCACUUAUAAUUCAGGUUCUGCUGUUGGCUUCAGAACAUGAGCAGAAGAAUCGUUUUAUGCUAGUUAUUGCAUUCAUGGUUGAAACUCAACUUAGGGAAAGGGUUCCAAUGUAUUAAGCAAUCAACAGAGGAUUGAGCAUCA
B2: chr7:152649051:152649153:-|CDS|ENSG00000196584|unk|FALSE|unique (ssRNA)
RNA: GGGAGUUCUACAGUCCGACGAUCAGCUCUGAAGAAAUAAUCAAAUACUGCCUGGGAAGAUUUUUUUUGGUGUACUGCAGUAGUAGCACCCACUUACUUCUUACACUUUACUCACUAGAAAGUAUGUUUUGUAGUCACCCAUCUCAACAGAGGAUUGAGCAUCA
B3: chr9:88475159:88475277:+|CDS|ENSG00000106723|unk|total|mutant (ssRNA)
RNA: GGGAGUUCUACAGUCCGACGAUCACAAGUGGAAUAUGCCAAAGAAGAUGGCUCGAAAAGGACUGGCAUGGUCAUUCAUCAAGCCGAAGCCAAGCCCUCCGUCUAUUUCAUCAAGUUUGAUGAUGAUUUCCAUAUUUAUGUCUACAACAGAGGAUUGAGCAUCA
B4: chr7:77779054:77779164:+|CDS|ENSG00000187257|unk|total|mutant (ssRNA)
RNA: GGGAGUUCUACAGUCCGACGAUCUAAAUUUGAAAACCGCAACAAAGAUUUAAAGGAAGAAUUGUGCCCUGGAAAUCUAAGUCCCGUUGAUACAAGGCAACACAGUUCAGCACAUUCAAAUCAAGAUAAAAAAGACGAUGACAUCAACAGAGGAUUGAGCAUCA
B5: chr9:130136078:130136182:+|3pUTR|ENSG00000148358|msi1_unk|total|mutant (ssRNA)
RNA: GGGAGUUCUACAGUCCGACGAUCAGUCCAAGCAAAUCAUCCCCAUUAAAAAGCUUUUCCUGCCGGCCCGCCGGAUUUCUAAACCGAUGAAUUCAACAGACUUGGUCCCCACCGUCCAAGAGUAUGUAUGUGAAGAAAGUGAGCCAACAGAGGAUUGAGCAUCA
B6: chr1:183143318:183143419:+|3pUTR|ENSG00000135862|msi1|FALSE|unique (ssRNA)
RNA: GGGAGUUCUACAGUCCGACGAUCACAUCCUGUGCCAAAGGUAUUGGUCAUUUAGAAUGUCGGUAGCCAUCCAUCAGUGCUUUUAGUUAUUAUGAGUGUAGGACACUGAGCCAUCCGUGGGUCAGGAUGCAAUUAUUUAUAAAACAACAGAGGAUUGAGCAUCA
B7: chr4:56994692:56994796:+|CDS|ENSG00000047315|unk|total|mutant (ssRNA)
RNA: GGGAGUUCUACAGUCCGACGAUCAAAAACAGUCAUUAAAGAAGGUGAAGAACAACUUCAGACUCAGCAUCAGAAAACUUUUACCGGAAAAAUUCCAAUUAUGUUGCGGUCAACUUACUGCCUUUUGAAUGGCUUGACAGAUCGCAACAGAGGAUUGAGCAUCA
B8: chr10:30313878:30313980:-|CDS|ENSG00000107951|unk|total|mutant (ssRNA)
RNA: GGGAGUUCUACAGUCCGACGAUCUGUUUUUAUAUUUAAGCCCUUCAUGUACUUACUCAUUUUUUCUUCUGUGUAAUAAUCUACCGGGAAGGGAGCAAAACAAACCUGAUUCUUCUCCUCUGUACAUUCAGAAUCCAUUUGAAACAACAGAGGAUUGAGCAUCA
B9: chr19:1925360:1925461:+|3pUTR|ENSG00000227500|msi1|total|mutant (ssRNA)
RNA: GGGAGUUCUACAGUCCGACGAUCUCUCGAACUCCUGACCUCAAGUGAUCCACCCGCCUUGGCCUCCCAAAGUGCUGGGAUAACCGGUGUCAGCCACCGCGCCCAGCCUGGAGUGGCCUUUUAUGAGAGGGGACCCGUCAAAUCCAACAGAGGAUUGAGCAUCA
B10: ENSG00000198589:be:win_3751|CDS|ENSG00000198589|bound_else_gene|NA|bound_elsewhere_windowed (ssRNA)
RNA: GGGAGUUCUACAGUCCGACGAUCACAGAUACUGAGAGGCUGGAGUUGAAGGCCAGUCCCAACGUGGAAGCACCUCAACCUCAUCGACAUGUGCUUGAGAUAUCAAGGCAACAUGAGCAGCCAGGGCAAGGAAUAGCACCAGAUCAACAGAGGAUUGAGCAUCA
B11: ENSG00000136451:be:win_3801|3pUTR|ENSG00000136451|bound_else_gene|NA|bound_elsewhere_windowed (ssRNA)
RNA: GGGAGUUCUACAGUCCGACGAUCACCCCUAAGCUAGAAUGUGGUUGUCAGAACCCUGAAAGUAUUAGUUCUAAAAAAAAAAAGAUAUAUACUAGAAGUAAUUGUUUUAUCAAUUCAUUGUAUAAUAAACAGGAGUGAGACUUCCAACAGAGGAUUGAGCAUCA
B12: chr2:216672738:216672882:-|3pUTR|ENSG00000115461|msi1|total|mutant (ssRNA)
RNA: GGGAGUUCUACAGUCCGACGAUCUUCUCUCCGGCUUUUGUUUCUAUUUCAAACAUACUUUCUUGGUUUUCUAAUGGAGUAUACCGUUCCGUCAUUUCACAGACUCUGGCCUCCUCUCCUGAAAUCCUUUUGGAUGGGGAAAGGCAACAGAGGAUUGAGCAUCA
B13: ENSG00000124766:be:win_1351|CDS_3pUTR|ENSG00000124766|bound_else_gene|NA|bound_elsewhere_windowed (ssRNA)
RNA: GGGAGUUCUACAGUCCGACGAUCACGCCCGAGGUGAGCGAGAUGAUCUCGGGAGACUGGCUCGAGUCCAGCAUCUCCAACCUGGUUUUCACCUACUGAAGGGCGCGCAGGCAGGGAGAAGGGCCGGGGGGGGUAGGAGAGGAGCAACAGAGGAUUGAGCAUCA
B14: ENSG00000070961:be:win_5651|3pUTR|ENSG00000070961|bound_else_gene|NA|bound_elsewhere_windowed (ssRNA)
RNA: GGGAGUUCUACAGUCCGACGAUCGUUUCUAGUCUUGGUUUUGCCAUUAAUGUGCUGCAUGAUCUUGGGAAAAUCAUUUACCCUAAAUAAGGGUGGUGGACUAUCUUGAAGAACCCUUUCAACUCUAAAAAUUGACCCUAUCAACAACAGAGGAUUGAGCAUCA
B15: chr9:16436428:16436529:-|CDS|ENSG00000173068|msi1|FALSE|unique (ssRNA)
RNA: GGGAGUUCUACAGUCCGACGAUCCUCCCUAGCCAGCUAGUAUUUUCUGGGCUAAAGACUGUACAACCAGUUCCUCCAUUUUAUAGAAGUUUACUCACUCCAGGGGAAAUGGUGAGUCCUCCAACCUCCCUCCCAACCAGUCCCCAACAGAGGAUUGAGCAUCA
B16: chr16:46710636:46710789:-|CDS|ENSG00000140795|control|control|control (ssRNA)
RNA: GGGAGUUCUACAGUCCGACGAUCGGCUUGUCCCCAUUUCUAGGGGAAACAGAUGCAGAGACCAUGAAUUUCAUUGUAAACUGUAGCUGGGAUUUUGAUGCUGACACCUUUGAAGGGCUCUCGGAGGAGGCCAAGGACUUUGUUCAACAGAGGAUUGAGCAUCA
B17: chr12:53210768:53210868:-|3pUTR|ENSG00000172819|msi1_unk|FALSE|overlapping (ssRNA)
RNA: GGGAGUUCUACAGUCCGACGAUCAGGGGGGAUGCUGCUUAGCUGAUCCCGCCCUGACCCAGAGGAAGCCUCUAUUUAUUUAUUAGCUUUUGUUUACACCGUGGAAUUGACCCCUUCCUCCAGGGGUCUUGGGUGGGGGAGCCCCAACAGAGGAUUGAGCAUCA
B18: chr6:37217323:37218421:-|three_prime_utr|ENSG00000172738|control|control|control (ssRNA)
RNA: GGGAGUUCUACAGUCCGACGAUCAGUUCAAGACCAGCCUGGCCUUGGCAGCCAUGGCAAAACCCCGUCUCUACUAAAAAAAAUAGAAAAUUAGCCAGGCGUGGCGGCACACACCUGUAAUCCCAGCCACUUGAGAGGCUGAGACAACAGAGGAUUGAGCAUCA
B19: ENSG00000070961:be:win_2151|CDS|ENSG00000070961|bound_else_gene|NA|bound_elsewhere_windowed (ssRNA)
RNA: GGGAGUUCUACAGUCCGACGAUCCAUUGCUACCAAAUGUGGUAUUUUACAUCCUGGGGAAGAUUUUCUGUGCCUAGAAGGUAAAGAUUUUAACAGAAGAAUACGAAAUGAAAAAGGAGAGAUUGAGCAAGAGAGGAUAGACAACAACAGAGGAUUGAGCAUCA
B20: chr15:43617570:43618356:-|three_prime_utr|ENSG00000284772|control|control|control (ssRNA)
RNA: GGGAGUUCUACAGUCCGACGAUCUACAUUCCUGGCCAACAUUUCUUCUUCCUUUGAGCCUGGGAGAAUGGGGGAAGGACCAGUAGGAGAGCCCCCACCUCUCCAGCCGCCUGCUCUGCGGCUCCAUGAUUUUCUAGUGACACUCAACAGAGGAUUGAGCAUCA
B21: chrX:85271413:85271529:+|CDS|ENSG00000147180|unk|total|mutant (ssRNA)
RNA: GGGAGUUCUACAGUCCGACGAUCUGUGAUAAAGGUUUUCAUCGUCCUUCUGAGCUCAAAAAGCACCGUGAUAUCCAUAAGGGCCGGAAGAUUCAUCAGUGCAGGCACUGUGACUUUAAAACAUCCGAUCCAUUUAUUCUCCGUCAACAGAGGAUUGAGCAUCA
B22: chr1:168200228:168200338:+|3pUTR|ENSG00000143155|unk|total|mutant (ssRNA)
RNA: GGGAGUUCUACAGUCCGACGAUCUAUUUUCUGGAGUUAAAUUUGGAUGAUUUCUAAAUUAUCACAAAGUGGGACCUCAGCAGCCGUGAUGUGUGUGUCUCAUGAGCAGUGAGCACAGUCUGCAUUCAUCAUGAAACACUAUCUCAACAGAGGAUUGAGCAUCA

The target of the assay is MSI1 full-length (mouse, UniProt Q61474 1-362). Kind of assay: nsRBNS (natural sequence RNA bind-n-seq); RBNS binding buffer (assumed for nsRBNS): 25 mM Tris pH 7.5, 150 mM KCl, 3 mM MgCl2, 0.01% Triton X-100, 500 ug/ml BSA, 20 U/ml SUPERase-In, 4 C; UNK is unkempt and MSI1 is Musashi-1; names of the RNAs are library labels; protein concentration not given here; high values mean tight binding.
UniProt Q61474, sequence (Q61474 whole entry): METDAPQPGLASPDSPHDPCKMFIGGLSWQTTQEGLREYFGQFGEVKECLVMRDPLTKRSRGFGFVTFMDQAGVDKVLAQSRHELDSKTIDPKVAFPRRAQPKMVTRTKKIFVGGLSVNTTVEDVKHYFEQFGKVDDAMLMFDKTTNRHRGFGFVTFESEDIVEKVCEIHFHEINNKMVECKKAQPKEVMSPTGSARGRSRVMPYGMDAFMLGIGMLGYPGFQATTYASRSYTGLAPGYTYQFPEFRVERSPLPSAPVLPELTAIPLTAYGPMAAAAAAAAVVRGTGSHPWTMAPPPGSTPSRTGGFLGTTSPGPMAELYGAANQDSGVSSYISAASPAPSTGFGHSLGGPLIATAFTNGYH
Molecule B1 displayed a binding signal of 0.742 enrichment R.

B2 displayed a binding signal of 1.1 enrichment R.

With B3, the binding signal amounted to 0.297 enrichment R.

B4: the binding signal is 0.179 enrichment R.

The molecule B5 registered a binding signal of 0.675 enrichment R.

B6: the binding signal worked out at 34.2 enrichment R.

In turn, B7 registered a binding signal of 0.235 enrichment R.

B8: the binding signal was 0.482 enrichment R.

For the molecule B9, the binding signal worked out at 0.318 enrichment R.

Turning to B10, the binding signal came out at 0.4 enrichment R.

For B11, the binding signal amounted to 16.4 enrichment R.

Consider B12, for which the binding signal came to 0.416 enrichment R.

The molecule B13 yielded a binding signal of 0.451 enrichment R.

For B14, the binding signal worked out at 0.357 enrichment R.

In turn, B15 had a binding signal of 6.94 enrichment R.

In turn, B16 showed a binding signal of 0.566 enrichment R.

In the case of B17, the binding signal was found to be 3.08 enrichment R.

Consider B18, for which the binding signal was determined as 1.65 enrichment R.

Molecule B19 registered a binding signal of 0.434 enrichment R.

The molecule B20 displayed a binding signal of 0.524 enrichment R.

As to B21, the binding signal amounted to 0.319 enrichment R.

On to B22, for which the binding signal was 0.333 enrichment R.

Values taken from article PMC12136788.
